The campaign covered roughly 110,000 compounds. About 230 (0.21%) showed an effect of 50% or more. This is one part of the list.
molecular target: DPAP1 (Plasmodium falciparum, UniProt Q8IIJ9); assay: primary screen, percent inhibition; read by cleavage of a fluorogenic dipeptide substrate; higher = more effect of the substance; set-up: species or system P. falciparum D10 trophozoite lysates; single well
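Also: 30 min substrate incubation versus DMSO and 10 µM JCP410 controls.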

DPAP1, sequence (Q8IIJ9 whole entry, looked up): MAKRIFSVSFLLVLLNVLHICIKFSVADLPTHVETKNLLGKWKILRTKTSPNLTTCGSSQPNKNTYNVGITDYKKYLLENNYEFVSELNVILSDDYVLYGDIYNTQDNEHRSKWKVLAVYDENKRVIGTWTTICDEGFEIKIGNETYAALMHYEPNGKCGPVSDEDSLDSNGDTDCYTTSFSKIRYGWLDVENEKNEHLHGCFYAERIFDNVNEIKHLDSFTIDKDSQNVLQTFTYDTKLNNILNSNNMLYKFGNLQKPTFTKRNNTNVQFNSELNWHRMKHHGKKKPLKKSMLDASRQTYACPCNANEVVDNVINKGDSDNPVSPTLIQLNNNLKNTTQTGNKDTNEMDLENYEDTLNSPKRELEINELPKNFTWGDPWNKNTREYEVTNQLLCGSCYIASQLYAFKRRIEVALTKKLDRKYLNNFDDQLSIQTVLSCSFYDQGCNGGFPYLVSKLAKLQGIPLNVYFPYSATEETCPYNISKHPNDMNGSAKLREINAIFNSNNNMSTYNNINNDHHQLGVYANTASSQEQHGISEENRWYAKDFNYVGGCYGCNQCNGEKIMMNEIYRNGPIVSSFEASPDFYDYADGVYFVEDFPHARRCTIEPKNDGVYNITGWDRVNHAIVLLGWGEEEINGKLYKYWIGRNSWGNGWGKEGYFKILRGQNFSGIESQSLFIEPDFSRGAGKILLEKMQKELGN

Row | SMILES | % Inhibition @ 10 uM
1 | C=C1N(C)C(=O)OC1(C)Cc1ccccc1 (stereo not drawn) | 1.11%
2 | Fc1ccc(-n2cnnn2)cc1 | 3.27%
3 | COc1ccccc1CNC(=O)COCc1cc(-c2ccc(F)cc2)on1 | -6.43%
4 | Nc1oc2c(CN3CCCCCC3)c(O)ccc2c(=O)c1-c1nc2ccccc2s1 | -4.78%
5 | CCOC(=O)C1=CN(C(C)C)C=C(C(=O)OCC)C1c1ccc(O)c(OC)c1 | -1.48%
6 | CCc1ccccc1NC(=O)CN(c1ccc(OC)c(Cl)c1)S(C)(=O)=O | 1.89%
7 | CC(C)Cc1nc2ccccc2[nH]1 | -4.02%
8 | COc1cc(CNCc2ccc(Br)cc2)cc(OC)c1OC | -11.7%
9 | Cc1nn(CC(=O)NCc2ccco2)c(=O)c2cc3cc(F)ccc3n12 | -1.7%
10 | O=C(Nc1cccnc1Cl)c1cnn2c(C(F)(F)F)cc(-c3ccc(Br)cc3)nc12 | -3.71%
11 | COC(=O)c1c(/N=C/N(C)C)c(C#N)c2n1CCCCC2 | 1.24%
12 | Cc1[nH]c2ccccc2c1/C=C/c1nc2ccccc2c(=O)n1C | -0.641%
13 | O=c1cccc2n1C[C@H]1C[C@@H]2CN(Cc2cccnc2)C1 | -2.48%
14 | O=C(Cc1ccccc1)Nc1ccc2oc(-c3cccnc3)nc2c1 | 27.4%
15 | CC12c3ccccc3C(c3ccccc31)C1C(=O)N(c3cccnc3)C(=O)C12 (stereo not drawn) | -3.26%
16 | CCOC(=O)c1cnc(-c2ccccc2)nc1NC | 2.65%
17 | COc1ccc(N(CC(=O)Nc2ccccc2Br)S(C)(=O)=O)cc1OC | 3.17%
18 | COc1ccccc1OCCCn1cc(C(=O)C2CC2)c2ccccc21 | 4.84%
19 | O=C(Nc1cccc(C(F)(F)F)c1)/C(=C\c1cccs1)NC(=O)c1ccccc1 | -4.76%
20 | CC(NC(=O)CSCc1cccc(Br)c1)c1ccccc1 (stereo not drawn) | 7.77%
21 | O=C(c1cc2c(O)nc3ccccc3c2s1)N1CCC2(CC1)OCCO2 | 1.23%
22 | COCCC/N=C/C1=C(O)c2sccc2N(Cc2ccccc2)S1(=O)=O | 5.25%
23 | CC1=C(C(=O)NCCN2CCN(Cc3ccccc3)CC2)C2(CCCCC2)OC1=O | 3.19%
24 | CCOc1ccc(CNS(=O)(=O)c2ccc(-c3cc(C(F)(F)F)no3)s2)cc1OC | -5.31%
25 | CC12CN3CC(c4ccccc4)(CN(C1)C3c1ccc3c(c1)OCO3)C2=O (stereo not drawn) | -3.31%
26 | CC(=O)N1CCN(Cc2ccc(Br)o2)CC1 | 3.06%

Row | SMILES | % Inhibition @ 10 uM
27 | CCOc1ccc(C(=O)Nc2c(C)cccc2CC)cc1 | -3.28%
28 | CCCOc1ccc(/C=c2\sc3nc(-c4cc(OC)c(OC)c(OC)c4)nn3c2=O)cc1 | -1.18%
29 | COc1ccc(CN2CCC(N3CCCC(C)C3)CC2)c(OC)c1 (stereo not drawn) | 0.222%
30 | Cn1c(=O)c2c(nc3n(CCO)c(C45CC6CC(CC(C6)C4)C5)cn23)n(C)c1=O | 0.121%
31 | Cc1ccc(C(=O)O/N=C(\N)c2cccnc2)cc1Cl | -1.25%
32 | O=C(Nc1ccc(-c2cn3cccnc3n2)cc1)c1ccc(Cl)cc1 | 2.01%
33 | Cc1cc(OCC(O)CN2CCCCCC2)ccc1C(C)C (stereo not drawn) | -3.27%
34 | COc1ccc(S(=O)(=O)N(CC(=O)NCCO)Cc2ccccc2)cc1 | 3.47%
35 | COC(=O)c1cc(S(=O)(=O)NCCN2CCOCC2)cn1C | 5.4%
36 | COc1ccc2c(CNCc3ccc(OC(C)C)cc3)c(C(=O)O)n(Cc3ccc(C)cc3)c2c1 | 0.16%
37 | O=C(N/C(=C/c1ccc(Br)cc1)C(=O)N1CCCC1)c1ccccc1F | -4.68%
38 | COC(=O)C1=C(C)N(CCc2ccc(OC)c(OC)c2)C(=O)/C1=C\c1ccc(O)cc1 | -1.6%
39 | O=C(O)CC(c1ccccc1Cl)N1C(=O)c2ccccc2C1=O (stereo not drawn) | -0.222%
40 | CCc1ccc(NC(=O)c2cccnc2)cc1 | -3.37%
41 | O=S1(=O)C2(Cl)CCC1(Cl)C(Cl)=C2Cl | -3.41%
42 | CCOC(=O)/C(C#N)=C/c1c(Oc2ccc(C)cc2C)nc2ccccn2c1=O | -1.43%
43 | CN1CCN(C2Cc3ccc(F)cc3Sc3ccccc32)CC1 (stereo not drawn) | -3.97%
44 | COC(=O)C1=C(N)Oc2cc(C)n(CC3CCCO3)c(=O)c2C1c1ccccc1 (stereo not drawn) | -4.78%
45 | CC(=O)N(C)c1ccc(NC(=O)COc2ccc(C(C)(C)C)cc2)cc1 | 0.145%
46 | CCC1CCc2c(sc(NC(=O)C3CC3)c2C(N)=O)C1 (stereo not drawn) | 17.4%
47 | CCN(CC)CCNC(=O)c1nc(-c2ccc(-n3cccc3)cc2)no1 | 1.84%
48 | COCC(C)NCc1c(F)cccc1F (stereo not drawn) | 5.01%
49 | O=C(NCc1cccnc1)c1ccc(CN2CC(=O)N3CCCCC3C2=O)cc1 (stereo not drawn) | -3.88%
50 | Cc1ccc(/C=C(/C#N)c2nc(-c3ccccc3)cs2)cc1 | -3.79%
51 | CCOC(=O)N1CCC(NCc2c(C(=O)O)n(Cc3ccccc3F)c3ccccc23)CC1 | 3.54%
